Reference: article PMC12136788
The other results are listed elsewhere or left out.

T1: UNK ZnF1-3 (human, UniProt Q9C0B0 31-174)
T1 sequence: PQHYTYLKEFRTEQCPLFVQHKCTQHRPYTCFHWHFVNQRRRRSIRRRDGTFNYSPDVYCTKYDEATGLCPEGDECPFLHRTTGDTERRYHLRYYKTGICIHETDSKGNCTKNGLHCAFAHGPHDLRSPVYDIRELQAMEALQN

B1: chr17:60770872:60770873:+_ENSG00000011028_ENST00000303375|hu_hu|hu_hu_hu_mus_True|18_38 (ssRNA)
RNA: GGGAGUUCUACAGUCCGACGAUCUCUUUAAAAAAAAAAAAAAAAAGACAAACAAUAAUAGCACAUUUCGAGAAUCAAGAACUACAAUAGAGGGUCCAUGUCUUCGAUUUGUUCACAACAUUGUCCCCUGGGACACGGGGACUGCAACAGAGGAUUGAGCAUCA
B2: 136383708_136384303_1458_CDS_ENSMUSG00000026455_ENSMUST00000027725|mouse|control|control (ssRNA)
RNA: GGGAGUUCUACAGUCCGACGAUCCAUAGGCGUAACGUUAGUCCAGUGUCCUGUAUGGGGAUCAUAUUUCUCAACUGAAUUUAAUAUGUUCAAGCCAUCAUAUCCUCCUAGACAAUAGAUUAUUCCGCUGGCCACUACUAGUCCCAACAGAGGAUUGAGCAUCA
B3: 125752430_125758377_1055_3pUTR_ENSG00000011454_ENST00000373647|human|control|control (ssRNA)
RNA: GGGAGUUCUACAGUCCGACGAUCCUUAUCAAUUCCUUGGCGUAGUUUAAAGCACUGUCUGUCCUUAUCUUUGGGAACUGCACUAAAAUAACCUUUACCAUCAUCUUCUUUUAUUUCUAAAGACACAGAGAAGGUAAAGAUGUCCAACAGAGGAUUGAGCAUCA
B4: chr4:39779992:39779993:+_ENSG00000078140_ENST00000510719|hu_hu|FALSE|FALSE (ssRNA)
RNA: GGGAGUUCUACAGUCCGACGAUCCUCAGAAGCAAUUCUGUUGCAGUCUCUACAUCCCAUGAUUUUGAAGACAAGGCCACUAUUACUGCAUUCCUAUCAAAGCCCAUAGCACAUAGGUUUUCUAUUUUUUUGGUGUAUUCUGGACAACAGAGGAUUGAGCAUCA
B5: chr5:128448638:128448639:+_ENSG00000066583_ENST00000173527|hu_mus|hu_hu_hu_mus_False|8_8 (ssRNA)
RNA: GGGAGUUCUACAGUCCGACGAUCGGCACUCGCCUUAAUUAGGUUCUGAAUUUCCUUGAACUUCGGGUGGUCUUUGUCAGCCACCAGCUGUAGGAGGACAGCCUCACUAGUGGUCACGAUGAUCCCAGUUCGAGCGAGACGCUCCAACAGAGGAUUGAGCAUCA
B6: chr4:101271765:101271766:+_ENSMUSG00000028528_ENSMUST00000094953|mus_hu|FALSE|FALSE (ssRNA)
RNA: GGGAGUUCUACAGUCCGACGAUCAGACUUAGGUGACAGAUUGUAUACUGUGUAGUGGUCAAGAUGUCUGGAAUCCAAAAAGCUUCGAAUGUCAUCAACCUGAUUCCUGAAUCCUAUGUCAACAUUGUCCAGAGGAAAGGACAUCAACAGAGGAUUGAGCAUCA
B7: chrX:131339419:131339420:-_ENSMUSG00000033436_ENSMUST00000035559|mus_hu|FALSE|FALSE (ssRNA)
RNA: GGGAGUUCUACAGUCCGACGAUCAUUCGAAAGGAUUUUCAAAAUCUCAACCUUGAUUUUUCCACCUCCCUGAGAUAGCAAACGGAAAAAGUUUGCAAUGGAAUUGACAAGCAGGUGCUGGUAGUCAUUAGUAAUAGUCAUGUUCAACAGAGGAUUGAGCAUCA
B8: 95574870_95578233_1546_CDS_ENSG00000087053_ENST00000352297|human|control|control (ssRNA)
RNA: GGGAGUUCUACAGUCCGACGAUCUCUUAGUUGAAAUCGAUGUCCAAAACUUAGCCAUUCUUUCUCCACAAGGACUUCAAAUCCUCGGAUGGUUCGAUAGUAUCCAUCCAACAUGAGCAUGGCAAGGGAAGUGAGCUGAGCUGUCAACAGAGGAUUGAGCAUCA
B9: chr12:39763582:39763583:-_ENSG00000139116_ENST00000544797|hu_mus|hu_hu_hu_mus_False|1_1 (ssRNA)
RNA: GGGAGUUCUACAGUCCGACGAUCCUCUAGGAACUGGGCAUUCACUUUGAAUUCAGGAGGGGGCAGCCCGUUUUUAAUCGCUGAGGUCUUUUUCUCAUCAAUACUCUUGAACAGGUGUCUAACAGCACGAGAGAUGAUACCCAGCAACAGAGGAUUGAGCAUCA
B10: chr1:115282363:115282364:-_ENSG00000009307_ENST00000339438|perfect_dup|FALSE|FALSE (ssRNA)
RNA: GGGAGUUCUACAGUCCGACGAUCAUCAUCUCCUACUUUUAAGUCUUGCAGGUUGCCAUUAUACUGUGAACAGUGGAAGAAAAGUCUAGCUUGACGUUCUGAACACUGAAUAAAUCCGUAAGAGGUUAACAGUUUUUCAAUAACCAACAGAGGAUUGAGCAUCA
B11: 131810538_131812914_573_CDS_ENSG00000152102_ENST00000409185|human|control|control (ssRNA)
RNA: GGGAGUUCUACAGUCCGACGAUCGACCGGGUGGGGGGCGACAGGAGUUGGGGAGUGAGCAGUCAGCAGGGUACCUGCUGACAUGGCCAUGGUGGUCCCAGCCACCAUGCCCAUGGUGACCCCGUUGCCUCUAGGAGGGGGGAUCAACAGAGGAUUGAGCAUCA
B12: chr11:93807532:93807533:+_ENSMUSG00000059474_ENSMUST00000107854|mus_mus|FALSE|FALSE (ssRNA)
RNA: GGGAGUUCUACAGUCCGACGAUCGUACACGUUGAACUGUGAAAGAGAACGGGCUACUGAGCUGUACGACGACAGGCAUUAUGGCUACGAUGGAAGCCUCCUCUGGUUAACGGUCUGUGUUAGCAGCAGGAGCGAGGGUCUUAACAACAGAGGAUUGAGCAUCA
B13: 247062812_247063484_1498_CDS_ENSG00000153207_ENST00000391829|human|control|control (ssRNA)
RNA: GGGAGUUCUACAGUCCGACGAUCAUCAAAAUUAUAAGUGCUUGGAUUAAAAAACUGCUCGGGAGGUGGAUAUGAAGGAGGGACUCCUCUAUUUAAACUUCUCUCAUGUACUAAUAUAUCCAAGAUGCCAUGUGGAGAAGUCCUCAACAGAGGAUUGAGCAUCA
B14: chr17:73774773:73774774:-_ENSG00000132475_ENST00000586270|hu_mus|FALSE|FALSE (ssRNA)
RNA: GGGAGUUCUACAGUCCGACGAUCUUUGGGCAUGAUGGUGACUCUCUUGGCGUGGAUGGCACACAGAUUGGUAUCUUCAAACAACCCCACCAGGUAUGCUUCGCUAGCCUCCUGAAGGGCACCGAUGGCUGCACUUUGAAACCUCAACAGAGGAUUGAGCAUCA
B15: 9605724_9608256_2938_CDS_ENSMUSG00000048264_ENSMUST00000174552|mouse|control|control (ssRNA)
RNA: GGGAGUUCUACAGUCCGACGAUCCGGCCUCUGCUCAGCCACAAUCACUAUCCUUUCAUCAUGAAGGACAGUCACUGAGAACACAGCUAUCCUGCCUCUGUAGACAAACUUCAUGGGCUCUACAGCUAAGGCUGUGGCCACAAUCAACAGAGGAUUGAGCAUCA
B16: chr4:48249827:48249828:-_ENSMUSG00000028343_ENSMUST00000030028|mus_hu|motif|central (ssRNA)
RNA: GGGAGUUCUACAGUCCGACGAUCCUCAAAAAUUGGAUGCAACAUCUGACUGAAACGACACCAGUCAGCAUAAAAAUUUACGGAAGCAACAUCAGCAUUGUUUAAAAUUUCAUCUAUAUUCUCUGUAUCAAGACUUGUUAUUUCCAACAGAGGAUUGAGCAUCA
B17: chr1:173059340:173059341:-_ENSMUSG00000058076_ENSMUST00000111336|mus_mus|FALSE|FALSE (ssRNA)
RNA: GGGAGUUCUACAGUCCGACGAUCGAGUCAAGCAUAAAAUGAGUAGUACUUUAAUCGUUUCCAAAGAAGAUGGUACAAGAAUUUAGAUUAGAAAAUAUGACAUUAAAGGUGUAUUUUCCUAGAAAUGAAAAACAGAACAGAAACCAACAGAGGAUUGAGCAUCA
B18: chr2:178407766:178407767:+_ENSG00000018510_ENST00000264167|hu_hu|FALSE|FALSE (ssRNA)
RNA: GGGAGUUCUACAGUCCGACGAUCAUUGACUGAUUCGAUGUGUAUCAGAGUACAGGUCCACCAUACAAUUAGUUAAAUAUACUAGAACAGAUUAUCCAAAACAACACUGUGGAAAGAAUUACCAGUGUUUCCACAUAUAACUGCCAACAGAGGAUUGAGCAUCA
B19: chr16:94664741:94664742:+_ENSMUSG00000040785_ENSMUST00000117648|mus_hu|mus_mus_mus_hu_False|38_48 (ssRNA)
RNA: GGGAGUUCUACAGUCCGACGAUCUGGUACUGAUCUUGGUAGCUGAUAUUCAGGAGAAAGGCUGGCCAAGGGUGUAUAUAUGCUGGUGAACUGCGACAGGCUAGGUAACACGUUUAUGUAUGCUGGCGGUGUCUGGGUGAUAUCCAACAGAGGAUUGAGCAUCA
B20: chr14:100422286:100422287:-_ENSMUSG00000072294_ENSMUST00000097079|mus_hu|motif|central (ssRNA)
RNA: GGGAGUUCUACAGUCCGACGAUCAGGGGACGUCCUGGCUUUGUUUAUUGACAAGUCCACUGGCUCAGUUUGUGUUUGGAAGUGAUCGGCAGAUAACGAGUCCUCCGGGGGCUCCCCUUUCACAUUAUUUAGCAACAGGGGAACCAACAGAGGAUUGAGCAUCA
B21: chr6:18258251:18258252:-_ENSG00000124795_ENST00000397239|hu_mus|motif|central (ssRNA)
RNA: GGGAGUUCUACAGUCCGACGAUCCUUCUUCAACGAGGACACUGUGCCCGGCCUGUUGUAAAGCAGUUUGUGUAGAUUUCGGAGUUCAUCUGGUUUUUUCUUACUCAGAAAGAAAUGUAUCCUUUCAAUUUCACAAAGUUUCUGCAACAGAGGAUUGAGCAUCA
B22: chr14:62205016:62205017:+_ENSG00000100644_ENST00000337138|hu_hu|FALSE|FALSE (ssRNA)
RNA: GGGAGUUCUACAGUCCGACGAUCCUGAUCCUGAAUCUGGGGCAUGGUAAAAGAAAGUUCCAGUGACUCUGGAUUUGGUUCUAAUUUUAAUGCAACUUCUUGAUUGAGUGCAGGGUCAGCACUACUUCGAAGUGGCUUUGGCGUCAACAGAGGAUUGAGCAUCA

Target: T1, UNK ZnF1-3
Experiment: nsRBNS (natural sequence RNA bind-n-seq); RBNS binding buffer (assumed for nsRBNS): 25 mM Tris pH 7.5, 150 mM KCl, 3 mM MgCl2, 0.01% Triton X-100, 500 ug/ml BSA, 20 U/ml SUPERase-In, 4 C; UNK is unkempt and MSI1 is Musashi-1; names of the RNAs are library labels; protein concentration not given here; high values mean tight binding

Row | Binder | binding signal
1 | B1 | 2.62 enrichment R
2 | B2 | 0.908 enrichment R
3 | B3 | 0.931 enrichment R
4 | B4 | 0.846 enrichment R
5 | B5 | 0.667 enrichment R
6 | B6 | 1.48 enrichment R
7 | B7 | 1.08 enrichment R
8 | B8 | 0.79 enrichment R
9 | B9 | 1.09 enrichment R
10 | B10 | 1.19 enrichment R
11 | B11 | 1.13 enrichment R
12 | B12 | 0.981 enrichment R
13 | B13 | 1.69 enrichment R
14 | B14 | 1.05 enrichment R
15 | B15 | 0.781 enrichment R
16 | B16 | 3.08 enrichment R
17 | B17 | 1.68 enrichment R
18 | B18 | 1.12 enrichment R
19 | B19 | 1.06 enrichment R
20 | B20 | 0.691 enrichment R
21 | B21 | 0.594 enrichment R
22 | B22 | 0.851 enrichment R
